Results as given in the supplement of paper PMC10724272.
MIC of invasive clinical C. tropicalis isolates, CLSI broth microdilution (fluconazole 0.12-256 mg/L, up to 1,024 for the azole-resistant cluster and its neighbour group; other ranges not stated); higher = less susceptible. Call: susceptible or wild type [S] / resistant or non-wild type [R] by CLSI breakpoints or cut-offs; intermediate and dose-dependent carry no call. '<=' and '>=' at the end values are inferred; the source marks only some of them. Isolates are numbered anew.

compound: CCC(C)n1ncn(-c2ccc(N3CCN(c4ccc(OCC5COC(Cn6cncn6)(c6ccc(Cl)cc6Cl)O5)cc4)CC3)cc2)c1=O [itraconazole]; experiment: CLSI broth microdilution.

| Test System | MIC |
| --- | --- |
| Candida tropicalis isolate 115 (ERG11 copies: 2, Erg11p: no key change) | 0.12 mg/L [S] |
| Candida tropicalis isolate 141 (ERG11 copies: 2, Erg11p: no key change) | 0.12 mg/L [S] |
| Candida tropicalis isolate 2 (ERG11 copies: 6, Erg11p: Y132F, S154F (homozygous)) | 1 mg/L [R] |
| Candida tropicalis isolate 155 (ERG11 copies: 2, Erg11p: no key change) | 0.12 mg/L [S] |
| Candida tropicalis isolate 279 (ERG11 copies: 8, Erg11p: Y132F, S154F (heterozygous)) | 0.5 mg/L [S] |
| Candida tropicalis isolate 252 (ERG11 copies: 2, Erg11p: no key change) | 0.5 mg/L [S] |
| Candida tropicalis isolate 349 (ERG11 copies: 7, Erg11p: Y132F, S154F (heterozygous)) | 1 mg/L [R] |
| Candida tropicalis isolate 146 (ERG11 copies: 2, Erg11p: no key change) | 0.12 mg/L [S] |
| Candida tropicalis isolate 257 (ERG11 copies: 2, Erg11p: no key change) | 0.5 mg/L [S] |
| Candida tropicalis isolate 321 (ERG11 copies: 2, Erg11p: no key change) | 0.25 mg/L [S] |
| Candida tropicalis isolate 412 (ERG11 copies: 2, Erg11p: no key change) | 0.06 mg/L [S] |
| Candida tropicalis isolate 182 (ERG11 copies: 2, Erg11p: no key change) | 0.12 mg/L [S] |
| Candida tropicalis isolate 89 (ERG11 copies: 2, Erg11p: no key change) | 0.25 mg/L [S] |
| Candida tropicalis isolate 201 (ERG11 copies: 2, Erg11p: Y132F, S154F (heterozygous)) | 0.5 mg/L [S] |
| Candida tropicalis isolate 169 (ERG11 copies: 2, Erg11p: no key change) | 0.25 mg/L [S] |
| Candida tropicalis isolate 398 (ERG11 copies: 2, Erg11p: Y132F, S154F (heterozygous)) | 0.25 mg/L [S] |
| Candida tropicalis isolate 14 (ERG11 copies: 2, Erg11p: no key change) | 0.12 mg/L [S] |
| Candida tropicalis isolate 64 (ERG11 copies: 2, Erg11p: no key change) | 0.06 mg/L [S] |
| Candida tropicalis isolate 245 (ERG11 copies: 2, Erg11p: no key change) | 0.06 mg/L [S] |
| Candida tropicalis isolate 435 (ERG11 copies: 2, Erg11p: no key change) | 0.12 mg/L [S] |
| Candida tropicalis isolate 4 (ERG11 copies: 2, Erg11p: no key change) | 0.12 mg/L [S] |
| Candida tropicalis isolate 415 (ERG11 copies: 2, Erg11p: no key change) | 0.5 mg/L [S] |
| Candida tropicalis isolate 32 (ERG11 copies: 6, Erg11p: Y132F, S154F (heterozygous)) | 0.5 mg/L [S] |
| Candida tropicalis isolate 295 (ERG11 copies: 2, Erg11p: no key change) | 0.25 mg/L [S] |
| Candida tropicalis isolate 88 (ERG11 copies: 2, Erg11p: no key change) | 0.25 mg/L [S] |
| Candida tropicalis isolate 90 (ERG11 copies: 2, Erg11p: no key change) | 0.12 mg/L [S] |
| Candida tropicalis isolate 36 (ERG11 copies: 2, Erg11p: no key change) | 0.25 mg/L [S] |

compound: OC(Cn1cncn1)(Cn1cncn1)c1ccc(F)cc1F [fluconazole]; experiment: CLSI broth microdilution.

| Test System | MIC |
| --- | --- |
| Candida tropicalis isolate 297 (ERG11 copies: 2, Erg11p: no key change) | 0.5 mg/L [S] |
| Candida tropicalis isolate 10 (ERG11 copies: 2, Erg11p: no key change) | 2 mg/L [S] |
| Candida tropicalis isolate 368 (ERG11 copies: 8, Erg11p: Y132F, S154F (heterozygous)) | 512 mg/L [R] |
| Candida tropicalis isolate 104 (ERG11 copies: 2, Erg11p: no key change) | 0.5 mg/L [S] |
| Candida tropicalis isolate 38 (ERG11 copies: 2, Erg11p: no key change) | 2 mg/L [S] |
| Candida tropicalis isolate 437 (ERG11 copies: 2, Erg11p: no key change) | 0.25 mg/L [S] |
| Candida tropicalis isolate 6 (ERG11 copies: 2, Erg11p: no key change) | 1 mg/L [S] |
| Candida tropicalis isolate 328 (ERG11 copies: 2, Erg11p: Y132F, S154F (homozygous)) | 64 mg/L [R] |
| Candida tropicalis isolate 92 (ERG11 copies: 2, Erg11p: no key change) | 2 mg/L [S] |
| Candida tropicalis isolate 115 (ERG11 copies: 2, Erg11p: no key change) | 2 mg/L [S] |
| Candida tropicalis isolate 141 (ERG11 copies: 2, Erg11p: no key change) | 2 mg/L [S] |
| Candida tropicalis isolate 2 (ERG11 copies: 6, Erg11p: Y132F, S154F (homozygous)) | 256 mg/L [R] |
| Candida tropicalis isolate 155 (ERG11 copies: 2, Erg11p: no key change) | 1 mg/L [S] |
| Candida tropicalis isolate 279 (ERG11 copies: 8, Erg11p: Y132F, S154F (heterozygous)) | 512 mg/L [R] |
| Candida tropicalis isolate 252 (ERG11 copies: 2, Erg11p: no key change) | 4 µg/mL |
| Candida tropicalis isolate 349 (ERG11 copies: 7, Erg11p: Y132F, S154F (heterozygous)) | 512 mg/L [R] |
| Candida tropicalis isolate 146 (ERG11 copies: 2, Erg11p: no key change) | 1 mg/L [S] |
| Candida tropicalis isolate 257 (ERG11 copies: 2, Erg11p: no key change) | 2 mg/L [S] |

| Test System | MIC |
| --- | --- |
| Candida tropicalis isolate 321 (ERG11 copies: 2, Erg11p: no key change) | 2 mg/L [S] |
| Candida tropicalis isolate 412 (ERG11 copies: 2, Erg11p: no key change) | 0.5 mg/L [S] |
| Candida tropicalis isolate 182 (ERG11 copies: 2, Erg11p: no key change) | 1 mg/L [S] |
| Candida tropicalis isolate 89 (ERG11 copies: 2, Erg11p: no key change) | 2 mg/L [S] |
| Candida tropicalis isolate 201 (ERG11 copies: 2, Erg11p: Y132F, S154F (heterozygous)) | 32 mg/L [R] |
| Candida tropicalis isolate 169 (ERG11 copies: 2, Erg11p: no key change) | 2 mg/L [S] |
| Candida tropicalis isolate 398 (ERG11 copies: 2, Erg11p: Y132F, S154F (heterozygous)) | 16 mg/L [R] |
| Candida tropicalis isolate 14 (ERG11 copies: 2, Erg11p: no key change) | 4 µg/mL |
| Candida tropicalis isolate 64 (ERG11 copies: 2, Erg11p: no key change) | 1 mg/L [S] |
| Candida tropicalis isolate 245 (ERG11 copies: 2, Erg11p: no key change) | 0.5 mg/L [S] |
| Candida tropicalis isolate 435 (ERG11 copies: 2, Erg11p: no key change) | 1 mg/L [S] |
| Candida tropicalis isolate 4 (ERG11 copies: 2, Erg11p: no key change) | 2 mg/L [S] |
| Candida tropicalis isolate 415 (ERG11 copies: 2, Erg11p: no key change) | 2 mg/L [S] |
| Candida tropicalis isolate 32 (ERG11 copies: 6, Erg11p: Y132F, S154F (heterozygous)) | 256 mg/L [R] |
| Candida tropicalis isolate 295 (ERG11 copies: 2, Erg11p: no key change) | 1 mg/L [S] |
| Candida tropicalis isolate 88 (ERG11 copies: 2, Erg11p: no key change) | 1 mg/L [S] |
| Candida tropicalis isolate 90 (ERG11 copies: 2, Erg11p: no key change) | 1 mg/L [S] |
| Candida tropicalis isolate 36 (ERG11 copies: 2, Erg11p: no key change) | 2 mg/L [S] |

compound: CC[C@@H]([C@H](C)O)n1ncn(-c2ccc(N3CCN(c4ccc(OC[C@@H]5CO[C@@](Cn6cncn6)(c6ccc(F)cc6F)C5)cc4)CC3)cc2)c1=O [posaconazole]; experiment: CLSI broth microdilution.

| Test System | MIC |
| --- | --- |
| Candida tropicalis isolate 297 (ERG11 copies: 2, Erg11p: no key change) | 0.03 mg/L [S] |
| Candida tropicalis isolate 10 (ERG11 copies: 2, Erg11p: no key change) | 0.25 mg/L [S] |
| Candida tropicalis isolate 368 (ERG11 copies: 8, Erg11p: Y132F, S154F (heterozygous)) | 1 mg/L [R] |
| Candida tropicalis isolate 104 (ERG11 copies: 2, Erg11p: no key change) | 0.03 mg/L [S] |
| Candida tropicalis isolate 38 (ERG11 copies: 2, Erg11p: no key change) | 0.5 mg/L [R] |
| Candida tropicalis isolate 437 (ERG11 copies: 2, Erg11p: no key change) | 0.015 mg/L [S] |
| Candida tropicalis isolate 6 (ERG11 copies: 2, Erg11p: no key change) | 0.12 mg/L [S] |
| Candida tropicalis isolate 328 (ERG11 copies: 2, Erg11p: Y132F, S154F (homozygous)) | 0.25 mg/L [S] |
| Candida tropicalis isolate 92 (ERG11 copies: 2, Erg11p: no key change) | 0.12 mg/L [S] |
| Candida tropicalis isolate 115 (ERG11 copies: 2, Erg11p: no key change) | 0.25 mg/L [S] |
| Candida tropicalis isolate 141 (ERG11 copies: 2, Erg11p: no key change) | 0.12 mg/L [S] |
| Candida tropicalis isolate 2 (ERG11 copies: 6, Erg11p: Y132F, S154F (homozygous)) | 1 mg/L [R] |
| Candida tropicalis isolate 155 (ERG11 copies: 2, Erg11p: no key change) | 0.25 mg/L [S] |
| Candida tropicalis isolate 279 (ERG11 copies: 8, Erg11p: Y132F, S154F (heterozygous)) | 0.5 mg/L [R] |
| Candida tropicalis isolate 252 (ERG11 copies: 2, Erg11p: no key change) | 0.5 mg/L [R] |
| Candida tropicalis isolate 349 (ERG11 copies: 7, Erg11p: Y132F, S154F (heterozygous)) | 1 mg/L [R] |
| Candida tropicalis isolate 146 (ERG11 copies: 2, Erg11p: no key change) | 0.12 mg/L [S] |
| Candida tropicalis isolate 257 (ERG11 copies: 2, Erg11p: no key change) | 0.5 mg/L [R] |
